About 12,000 (3.5%) of roughly 340,000 compounds were called active. The shares of active, inactive and inconclusive entries below differ from those in the screen. Calls come from the whole dose curve; as a rule, active = well fitted inhibition curve with a large enough effect; inconclusive = small, poorly fitted or top-dose-only effect, or another doubt; inactive = no such curve, though single readings can be large or run the other way. No potency is given beside an inconclusive call; the fits are too rough.
Experiment: qHTS Assay for Inhibitors of Hepatitis C Virus (HCV)
Details: Huh7.5.1 HCVcc-Cre (HCVcc is cell-culture hepatitis C virus) infection, luciferase reporter, 44 h; activity change, negative = inhibition: at 41.8 µM (top of the series) unless noted
Outline: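 Cells (1,000/well) were plated 4 h before compound, then infected with HCVcc-Cre virus (~0.5 moi). After 44 h further culture, infection was read as luciferase luminescence following a 15 min substrate incubation at room temperature.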
% is set by controls: 0 for no effect and ±100 for the full control effect; potency is the fitted concentration of half-maximal effect; tags give direction and shape of the fitted curve.

Row | SMILES | activity change, negative = inhibition | Potency
1 | O=C1NN(c2ccccc2)C(=O)/C1=C/c1ccc(-c2ccc(C(=O)O)cc2)o1 | inactive: -2.77% | 
2 | CCOc1ccc(NC(=O)CN(c2ccc([N+](=O)[O-])cc2)S(=O)(=O)c2ccccc2)cc1 |  | inconclusive [inhibitor, partial curve]
3 | Cc1noc(C)c1NC(=O)Nc1ccc2c(c1)C(=O)N([C@H](C)CO)C[C@H](C)[C@@H](CN(C)S(=O)(=O)c1ccc(F)cc1)O2 |  | inconclusive [inhibitor, full curve]
4 | CCOC(=O)c1c(NC(=O)COc2ncnc3ccccc23)sc(C)c1C |  | inconclusive [inhibitor, partial curve]
5 | Cc1cc2ccccn2c1C(=O)c1cccc(S(=O)(=O)N2CCOCC2)c1 |  | inconclusive [inhibitor, single point]
6 | O=C(CCc1nc2ccccc2c(=O)[nH]1)NCCN1C(=O)S/C(=C\c2ccccc2Cl)C1=O |  | inconclusive [inhibitor, single point]
7 | C=CCc1ccccc1OCCOc1ccc([N+](=O)[O-])cc1/C=N/NC(N)=O | inactive: -0.0346% | 
8 | COCCNC(=O)C(c1ccc(C)o1)N(Cc1cccs1)C(=O)c1snc(C(N)=O)c1N (stereo unspecified) |  | inconclusive [inhibitor, partial curve]
9 | COc1ccc2c(c1)CCC1C2=NN(/C(C)=C/C(C)=O)C1c1cccc(F)c1 (stereo unspecified) |  | active: 11.2 µM
10 | Cc1ccc(N2CCN(C(=O)c3cc(COc4c(C)cccc4C)on3)CC2)c(C)c1 |  | inconclusive [inhibitor, full curve, poor fit]
11 | CN(CCOc1ccc(Cl)cc1)C(=O)c1cccc(S(=O)(=O)N2CCN(Cc3ccccc3)CC2)c1 |  | active: 2.51 µM
12 | O=S(=O)(NCc1cc(-c2ccc(Cl)cc2)no1)c1ccccc1 |  | inconclusive [inhibitor, single point]
13 | COc1cccc(/C=N/NC(=O)c2cc(C34CC5CC(CC(C5)C3)C4)[nH]n2)c1 |  | inconclusive [inhibitor, full curve, poor fit]
14 | COc1ccc(-c2ccc3oc(-c4ccc(OC)cc4)c(-c4cc(OC)c(OC)c(OC)c4)c3c2)cc1 | inactive: 13.2% | 
15 | COc1cc(CCC(=O)Nc2ccncc2Cl)cc(OC)c1OC |  | inconclusive [inhibitor, single point]
16 | COc1cc(Cn2c(N)c(C#N)c3nc4ccccc4nc32)cc(OC)c1 |  | inconclusive [inhibitor, partial curve]
17 | CCn1c(COc2ccccc2)nnc1SCC(=O)c1cccc([N+](=O)[O-])c1 |  | inconclusive [inhibitor, partial curve]
18 | O=C(COC(=O)c1cccnc1Nc1ccccc1F)NC1CC1 | inactive: -0.358% | 
19 | COc1cccc(N=Nc2c(N)[nH][nH]c2=O)c1 |  | inconclusive [inhibitor, partial curve]
20 | COc1ccc(CCNC(=O)c2ccc(NC(=O)CC3SC(N4CCCCC4)=NC3=O)cc2)cc1OC (stereo unspecified) |  | inconclusive [inhibitor, single point]
21 | Cc1ccc2c(C)nc(N/C(N)=N/S(=O)(=O)c3ccc([N+](=O)[O-])cc3)nc2c1 |  | inconclusive [inhibitor, partial curve]
22 | Cc1c(OC(C)C(=O)NCc2ccccn2)ccc2c3c(c(=O)oc12)CCC3 (stereo unspecified) |  | inconclusive [inhibitor, single point]

Row | SMILES | activity change, negative = inhibition | Potency
23 | CCOC(=O)N1CCN(C(=O)c2ccccc2NC(=O)COc2ccccc2C)CC1 |  | inconclusive [inhibitor, single point]
24 | CCCn1c(C2CCCN2c2nc(-c3cccc(Br)c3)cs2)nc2ccccc21 (stereo unspecified) |  | inconclusive [inhibitor, full curve]
25 | COc1cc(-c2cc(C(=O)Nc3ccc(C)c(S(=O)(=O)N4CCOCC4)c3)c3ccccc3n2)cc(OC)c1OC |  | inconclusive [inhibitor, full curve]
26 | CCN1CCN(C(=O)c2ccc3nc(-c4ccccc4)c(-c4ccccc4)nc3c2)CC1 |  | inconclusive [inhibitor, single point]
27 | CSCc1cc(N2CCCC2)nc(-c2ccccc2)n1 |  | inconclusive [inhibitor, single point]
28 | CC(=O)C1=C(C)N(Cc2ccccc2)C(=O)N[C@@H]1c1cccc(C(F)(F)F)c1 | inactive: -13.3% | 
29 | CCCc1nc2oc3c(OC)ncnc3c2c2c1COC(C)(C)C2 |  | inconclusive [inhibitor, single point]
30 | O=C(Cc1ccc(Cl)cc1)Nc1ccc(N2CCN(C(=O)c3ccco3)CC2)c(Cl)c1 |  | inconclusive [inhibitor, single point]
31 | COc1cc2c(cc1OC)CN(C(=O)Cc1c(F)cccc1Cl)CC2 |  | inconclusive [inhibitor, single point]
32 | COc1ccc([C@H]2CC(=O)C=C(c3ccc(C)cc3)C2)cc1 |  | inconclusive [inhibitor, single point]
33 | CCN(c1ccccc1)S(=O)(=O)c1cccc(C(=O)NCC2(N(C)C)CCCCC2)c1 |  | inconclusive [inhibitor, single point]
34 | O=C(O)CC12CC3CC(C1)CC(n1ncc(NCc4ccccc4)c(Cl)c1=O)(C3)C2 |  | inconclusive [inhibitor, partial curve]
35 | CCCCN1CC(COCc2ccccc2)OCCS1(=O)=O (stereo unspecified) | inactive: -20.5% | 
36 | Cc1nc2sccn2c1-c1nc(-c2cc3ccccc3o2)cs1 |  | inconclusive [inhibitor, single point]
37 | Cc1ccc2c(CC(=O)NC3CCCc4ccccc43)coc2c1 (stereo unspecified) |  | inconclusive [inhibitor, single point]
38 | Cc1cc(C)cc(N=c2c([N+](=O)[O-])nn(-c3ccc4c(c3)OCCO4)n2O)c1 |  | inconclusive [inhibitor, partial curve]
39 | O=C(Nc1ccc(CN2CCOCC2)cc1)c1cc2ccccn2n1 | inactive: 1.81% | 
40 | CCOC(=O)Cc1cc(-c2ccccc2)nc2ccc3ccccc3c12 |  | inconclusive [inhibitor, single point]
41 | CCOC(=O)C1=Nc2ccccc2/C1=C\c1c(O)n(C)c(=O)n(C)c1=O |  | inconclusive [inhibitor, partial curve]
42 | O=C(NCc1nnc2c(C(F)(F)F)cc(Cl)cn12)C1CCCC1 | inactive: 13% | 
43 | CCOc1ccc(-c2nc[nH]c2[N+](=O)[O-])cc1 | inactive: 4.98% | 
44 | Cc1ccsc1C(=O)C1CCCN(Cc2c(C)nn(C(C)C)c2C)C1 (stereo unspecified) |  | inconclusive [inhibitor, partial curve]

Row | SMILES | activity change, negative = inhibition | Potency
45 | COc1ccc(NCc2nc3ccccc3n2C)cc1 | inactive: 3.27% | 
46 | CN(Cc1ccco1)C(=O)C(Cc1ccccc1)NS(=O)(=O)c1ccc2c(c1)CCC(=O)N2 (stereo unspecified) | inactive: -6.45% | 
47 | OCCN=c1cc(-c2ccccc2)oc2ccc(Cl)cc12 |  | inconclusive [inhibitor, single point]
48 | CCOc1ccc2c(c1)-c1c(ssc1=S)C(C)(C)N2C(=O)c1ccco1 |  | active: 10 µM
49 | O=c1[nH]c(/C(=N\O)c2ccccc2)no1 |  | inconclusive [inhibitor, single point]
50 | Cc1ccc(C(=O)NC(NC(=O)c2ccc(C)cc2)C(Cl)Cl)cc1 |  | inconclusive [inhibitor, partial curve, poor fit]
51 | Cc1cccc(-n2ncc3c2CCCC3NC(=O)Cc2c(C)noc2C)c1C (stereo unspecified) |  | active: 8.91 µM
52 | c1ccc(Nc2nc(-c3ccccn3)cs2)cc1 |  | inconclusive [inhibitor, single point]
53 | COC(=O)CN1C(=O)[C@@H]2[C@H](C1=O)[C@@H]1CC(C(=O)OC)=C[C@@H](C(=O)OC)[C@@H]3C1=C(C(=O)[C@@]3(C)NC(=O)c1ccccc1)[C@@H]2C | inactive: -20.7% | 
54 | CCNC(=O)C(=O)N/N=C/c1cc([N+](=O)[O-])ccc1O | inactive: 11.5% | 
55 | Cc1ncoc1C(=O)N1CCCC(C(=O)c2ccc(-c3ccccc3)cc2)C1 (stereo unspecified) |  | inconclusive [inhibitor, single point]
56 | CCn1cc(C(=O)N[C@@H](CCSC)C(=O)NCCCN2CCOCC2)c(=O)c2cc3c(cc21)OCO3 | inactive: 13.6% | 
57 | C=CCn1c(O)c(N=NC(=S)Nc2cccc(C)c2)c2ccccc21 |  | inconclusive [inhibitor, full curve]
58 | CC(C)Cn1c(N)c(C(=O)COC(=O)c2cccnc2Cl)c(=O)n(C)c1=O |  | inconclusive [inhibitor, full curve]
59 | O=C1Cc2c([nH]c3ccc(Br)cc23)-c2ccccc2N1 |  | inconclusive [inhibitor, single point]
60 | Cc1ccc(N2CC(C(=O)Nc3nnc(C)s3)CC2=O)cc1 (stereo unspecified) | inactive: 12.3% | 
61 | CC(C)=CC(=O)O[C@@H]1Cc2cc3ccc(=O)oc3cc2OC1(C)C |  | active: 3.16 µM
62 | N/C(=N\OC(=O)/C=C/c1ccccc1)c1ccc(Cl)cc1 | inactive: 6.46% | 
63 | CCCOc1ccc(C(=O)Nc2ccc(CN3CCOCC3)cc2)cc1 |  | inconclusive [inhibitor, single point]
64 | CCOc1cc(CNc2ccc(CNc3ncn[nH]3)cc2)ccc1OCc1ccccc1 |  | inconclusive [inhibitor, partial curve, poor fit]
65 | CCCc1cc(=O)oc2cc(OCC(=O)N3CCN(Cc4ccc5c(c4)OCO5)CC3)ccc12 |  | inconclusive [inhibitor, partial curve]
66 | COc1cc(-c2nc(C(=O)NCC3CCCO3)cc3c2[nH]c2ccccc23)cc(OC)c1OC (stereo unspecified) |  | active: 3.55 µM

— PubChem BioAssay AID651820 (National Center for Advancing Translational Sciences (NCATS), 2012)
